# Sequences with one replicate were seen in a single cluster, so their values are uncertain.
# Tested on: ATP
# Assay: switch fluorescence ratio, 500 uM ATP over buffer (Cy3 cluster intensity, sum of 5 cycles each) (fold (ratio)); higher = stronger signal-on switching upon ATP binding; sequences stand for … in TCGTCGGCAGCGTCAGATGTGTATAAGAGACAGTTTTTTTTTTTTTTTTTTTTTTTTT…TC
# Conditions: aptamer strand: ATP DNA aptamer (quencher-CACCTGGGGGAGTATTGCGGAGGAAGG + anchor), 100 nM annealed; ATP concentration: 500 uM; one replicate
# In short: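 Cy3-labelled switching-strand clusters on a modified Illumina MiSeq flow-cell were annealed to 100 nM quencher-labelled ATP aptamer, imaged in selection buffer, then imaged after 15 min with 500 uM ATP at 22 °C. Five buffer/ATP cycles ran, with NaOH stripping and re-annealing between them. The fluorescence ratio is summed target-cycle over summed buffer-cycle Cy3 intensity per cluster, averaged per switch-domain sequence. Clusters outside 100-1000 RFU were excluded.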
# 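Further: ATP exposure 15 min at 22 °C before imaging.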
row,Sequence,switch fluorescence ratio
1,CCAGGAATTT,1.01
2,CCAGGCCACC,1
3,CCAGGCCGT,0.961
4,CCAGGGAAAT,1.01
5,CCAGGGAACG,1.04
6,CCAGGTTGCG,1.09
7,CCAGTAAGA,0.975
8,CCAGTAAGGT,1
9,CCAGTAGTTC,1.05
10,CCAGTATGCT,0.949
11,CCAGTATTGC,1.09
12,CCAGTATTT,1.02
13,CCAGTCGTAA,1.33
14,CCAGTGAGTT,0.986
15,CCAGTTAACC,0.996
16,CCAGTTCACA,1.01
17,CCATAATAAT,1.02
18,CCATAGCCGC,2.78
19,CCATAGGCGT,1.02
20,CCATAGTCGT,1.03
21,CCATATTAAC,1.02
22,CCATCAGCTC,1.56
23,CCATCAGTAA,1.49
24,CCATCCTGCT,1.09
25,CCATGAGGTC,0.916
26,CCATGCGTTA,1.12

row,Sequence,switch fluorescence ratio
1,CCATGCTTAC,4.85
2,CCATGGAGAG,0.975
3,CCATGGCCAG,0.984
4,CCATGGGGTT,0.979
5,CCATGTAATC,1.36
6,CCATGTCAC,1.07
7,CCATTAAAAC,1.05
8,CCATTAATCG,0.993
9,CCATTAGTAG,1.04
10,CCATTAGTGG,0.981
11,CCATTCGTTC,1.09
12,CCATTCTCGC,1.09
13,CCATTCTGAG,1.01
14,CCCAAACGGT,1.08
15,CCCAAAGAAT,1.19
16,CCCAAGTCAT,1.03
17,CCCAATCTCG,1.9
18,CCCACCCCTT,1.05
19,CCCACCCTCC,1.53
20,CCCAGAAAC,1.07
21,CCCAGAGGAA,1.07
22,CCCAGGCACG,1.05
23,CCCAGGCCCA,1.19
24,CCCAGGGGGG,1.07
25,CCCAGTACTT,1.33
26,CCCAGTAGCC,1.01

row,Sequence,switch fluorescence ratio
1,CCCATAATTC,1.07
2,CCCATAT,1.06
3,CCCATCTTAT,1.01
4,CCCATGATAT,1.04
5,CCCATGCGTC,1.01
6,CCCATTAATA,1.01
7,CCCATTCCCC,1.22
8,CCCCAATTGG,1
9,CCCCATGTTT,1.9
10,CCCCCACGCC,1.57
11,CCCCCCTGGC,1.12
12,CCCCCGAATA,3.91
13,CCCCCTCGGA,1.14
14,CCCCGAGAAC,2.93
15,CCCCGCAGCG,4.68
16,CCCCGGCTTT,1.11
17,CCCCTAGAAC,1.15
18,CCCCTGATTC,1.04
19,CCCCTTTGAC,1.09
20,CCCGATGCGT,1.54
21,CCCGCAGGGG,1.51
22,CCCGCCTAGT,1.17
23,CCCGCGAAAT,2.05
24,CCCGGAACAA,1.52
25,CCCGGACAAA,1.01
26,CCCGGCATT,1.65

row,Sequence,switch fluorescence ratio
1,CCCGGCTCGT,1.02
2,CCCGGGGAGT,1.02
3,CCCGGGGTTA,1.03
4,CCCGGGTAAA,0.967
5,CCCGGGTCTA,1.05
6,CCCGGTGGGG,0.97
7,CCCGTGCAAG,1.28
8,CCCGTGCGCG,1.01
9,CCCGTGGTTC,1.02
10,CCCGTTAGTC,1.07
11,CCCGTTGAGA,0.997
12,CCCGTTGATG,1.03
13,CCCGTTTATC,1.08
14,CCCTAACTTG,1.04
15,CCCTCATCGC,1.29
16,CCCTCATTC,0.992
17,CCCTCCATTG,1.61
18,CCCTCGTATG,0.964
19,CCCTCTTGTT,1
20,CCCTGAGTAA,1.46
21,CCCTGCCTTG,0.967
22,CCCTGGAGAA,0.99
23,CCCTGGGGTT,1.04
24,CCCTTACACC,1.22
25,CCCTTCCAT,1.27
26,CCCTTGGTTC,1.03

row,Sequence,switch fluorescence ratio
1,CCCTTTAAAG,1.03
2,CCCTTTCATC,1.95
3,CCGAAACCGG,0.993
4,CCGAAAGTTC,2.02
5,CCGAAGAATT,1.6
6,CCGAAGTCAT,3.91
7,CCGAATTAAA,1.07
8,CCGAATTCAG,1.03
9,CCGACAACTA,3.4
10,CCGACATTGG,1.06
11,CCGACCCCGA,2.28
12,CCGACCCTTA,2.49
13,CCGACTTGGT,1.08
14,CCGAGAGTTT,1.1
15,CCGAGCTG,2.09
16,CCGAGGCGCG,1.36
17,CCGATACTAG,1.33
18,CCGATAGTTA,1.16
19,CCGATATGTT,1.05
20,CCGATCAGGG,1.18
21,CCGATTTATC,1.11
22,CCGCACTAAA,5.31
23,CCGCAGGCAT,2.88
24,CCGCATGTT,4.41
25,CCGCCATCT,1.49
26,CCGCCCTTGA,1.29

row,Sequence,switch fluorescence ratio
1,CCGCCTTTCA,1.04
2,CCGCGGCATG,2.64
3,CCGCGGTGCG,1.56
4,CCGCGTGGTT,1.02
5,CCGCGTTGGA,1.07
6,CCGCTAACTT,3.62
7,CCGCTACGTG,1.83
8,CCGCTCCAGA,1.6
9,CCGCTGAGCT,2.08
10,CCGCTGGGAG,1.24
11,CCGCTGGTTT,1.41
12,CCGCTGTTCT,1.63
13,CCGCTTTCGA,3.47
14,CCGCTTTGTA,1.41
15,CCGGAATAGA,1.34
16,CCGGAATCAA,1.76
17,CCGGACCCTA,1.13
18,CCGGATAATA,1.13
19,CCGGATCCTC,1.23
20,CCGGCAAGCA,4.86
21,CCGGCATGGT,1.09
22,CCGGCATTTC,2.83
23,CCGGCCAGGG,1.57
